The whole screen tested about 74,000 compounds, of which about 1,100 (1.5%) were called active. Inconclusive results, whose numbers are uncertain, are shown with a selection of clear calls. The call rests on the fitted dose curve; in most records, active means well fitted inhibition curve with a large enough effect; inconclusive means small, poorly fitted or top-dose-only effect; inactive means no such curve, though single readings can be large or run the other way. Potencies of inconclusive entries are left out as doubtful fits.
What follows are compounds tested against Polyunsaturated fatty acid lipoxygenase ALOX15 (Homo sapiens) (UniProt P16050) (assay: qHTS Assay for Inhibitors of 15-hLO (15-human lipoxygenase)). Details: purified 15hLO-1, xylenol orange hydroperoxide absorbance; activity change, negative = inhibition: at 57.1 µM (top of the series) unless noted.
Source text: Assay Overview: NIH Molecular Libraries Screening Centers Network [MLSCN] NIH Chemical Genomics Center [NCGC] MLSCN Grant: MH081283-01A1 PI Name: Holman, T.R., University of California, Santa Cruz Human lipoxygenase 15hLO-1 is a member of the closely related lipoxygenase family of enzymes which catalyze the site-specific oxidation of arachidonic acid to various hormone precursor molecules and as such is a candidate for drug development in a variety of disease areas, such as cancer and inflammation. Inhibition of 15hLO-1 activity was screened by utilizing arachidonic acid as a substrate. The extent of hydroperoxide product formation was measured by a secondary chromogenic reaction in which xylenol orange (XO, Sigma-Aldrich, cat. number 39,818-7) reacts with the ferric ions produced from the reaction between the hydroperoxide and ferrous ions. The Fe(III)-XO complex is characterized with red-shifted absorbance at 560 nm. A purified preparation of human 15hLO-1 was supplied by Professor Ted Holman, University of California, Santa Cruz.
Assay Protocol: Buffer: 25 mM Hepes pH 7.5, 0.01% Triton X-100. Reagents/Controls: Buffer in columns 3 and 4 as negative control (no enzyme). Substrate solution: 50 uM arachidonic acid (Sigma-Aldrich, St. Louis, MO) final concentration dispensed throughout the plate. Enzyme: 40 nM 15hLO-1 final concentration in columns 1, 2, 5-48. Column 1 is neutral (100% activity). Column 2 contained pin-transferred titration of NDGA (nordihidroguaiaretic acid, Sigma-Aldrich, N 5023, top concentration 10 mM in DMSO, then 1:2 dilution in duplicate). (Dilution factor: 23 nL into 4 uL.) Chromogenic detection reagent (divalent iron/xylenol orange, Fe-XO): 200 uM xylenol orange plus 300 uM ferrous ammonium sulfate prepared freshly in 50 mM sulfuric acid. Assay Steps: Three uL of enzyme were dispensed to 1536-well Greiner black clear bottom plates. Compounds and controls (23 nL) were transferred via Kalypsys PinTool. The plates were incubated for 15 min at room temperature, and then 1 uL of substrate solution was added to start the reaction. After room temperature incubation for 6 minutes, 4 uL of Fe-XO solution was added to each well followed by a short spin (1000 rpm, 15 sec) and the plates were then incubated for 30 min. The absorbance at 405 and 573 nm were measured using ViewLux (Perkin-Elmer) High-throughput CCD imager and absorbance protocol settings. The 573-to-405 absorbance ratio was used to compute reaction progress.
Further: nearly all actives have a fitted effect of over 55% in size.
On the % scale 0 is the no-effect control and ±100 the full control effect; potency means the concentration at half of the fitted maximal effect; tags describe the fitted curve by direction and shape.

Chain of UniProt P16050 (P16050 whole entry, looked up): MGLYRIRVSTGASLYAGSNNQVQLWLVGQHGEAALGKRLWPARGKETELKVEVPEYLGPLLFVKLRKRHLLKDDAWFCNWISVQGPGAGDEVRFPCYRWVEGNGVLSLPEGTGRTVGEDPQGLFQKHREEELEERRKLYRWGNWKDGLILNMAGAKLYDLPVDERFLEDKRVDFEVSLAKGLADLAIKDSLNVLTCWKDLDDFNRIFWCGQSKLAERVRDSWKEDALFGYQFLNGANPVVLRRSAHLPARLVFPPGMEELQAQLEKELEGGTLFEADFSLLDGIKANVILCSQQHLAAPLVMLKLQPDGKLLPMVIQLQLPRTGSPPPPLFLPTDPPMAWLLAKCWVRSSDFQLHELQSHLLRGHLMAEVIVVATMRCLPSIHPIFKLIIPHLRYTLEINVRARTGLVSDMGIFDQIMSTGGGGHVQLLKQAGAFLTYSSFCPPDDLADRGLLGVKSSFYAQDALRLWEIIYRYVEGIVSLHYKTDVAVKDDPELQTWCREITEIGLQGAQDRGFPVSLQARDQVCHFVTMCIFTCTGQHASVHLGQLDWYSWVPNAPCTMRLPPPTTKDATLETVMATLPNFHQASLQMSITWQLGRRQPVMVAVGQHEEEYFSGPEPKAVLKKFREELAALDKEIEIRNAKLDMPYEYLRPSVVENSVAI

| SMILES | activity change, negative = inhibition | Potency |
| --- | --- | --- |
| Cc1nc(SCC(=O)Nc2ccccc2)c2oc3ccccc3c2n1 | inactive: 5.3% |  |
| Cc1ccccc1-c1cncnc1N1CCN(C)CC1 | inactive: 6.65% |  |
| COC(=O)c1sc2ccccc2c1N |  | inconclusive [inhibitor, partial curve] |
| Cc1noc(C)c1-c1nccc(NCCN2CCOCC2)n1 |  | inconclusive [inhibitor, single point] |
| O=C(Nc1ccc(C(=O)N2CCOCC2)cc1)Nc1cccc(Cl)c1 | inactive: 4.32% |  |
| CCOC(=O)N1CCN(C(=O)c2cccc(-n3c(=S)[nH]c4cc(Cl)ccc4c3=O)c2)CC1 | inactive: -9.83% |  |
| COc1ccc(Br)cc1CNc1ccc(O)cc1 |  | inconclusive [inhibitor, single point] |
| CCC(=O)Nc1cc(C(=O)NCC2CCCN2CC)c(OC)cc1N(C)C (configuration not stated) |  | inconclusive [inhibitor, partial curve] |
| C[N+](C)(C)CCC(=O)c1cccc2ccccc12 |  | inconclusive [inhibitor, partial curve] |
| Cc1ccc(-c2noc(CN(C(=O)CCCCCN3C(=O)c4ccccc4C3=O)C(C)C)n2)cc1 |  | inconclusive [inhibitor, single point] |
| Cc1cc(C(=O)CSc2nnc(-c3cccs3)o2)c(C)n1-c1ccccc1 |  | active: 20 µM |
| Cn1c(=O)[nH]c(=O)c2c1nc(SCC(=O)O)n2CCc1ccccc1 |  | active: 6.31 µM |
| N#Cc1c(N)nc(SC2CCCCC2=O)c(C#N)c1-c1ccco1 (configuration not stated) |  | inconclusive [inhibitor, partial curve] |
| O=c1[nH]c2cc3c(cc2cc1C(c1nnnn1C1CCCCC1)N1CCSCC1)OCCO3 (configuration not stated) |  | inconclusive [inhibitor, partial curve] |
| C=Cc1c(C)/c2[n-]/c1=C\c1[n-]c(c(CC)c1C)/C=c1\[n-]c3c(c1C)C(=O)C(C(=O)[O-])C=3c1[n-]c(c(C)c1CCC(=O)[O-])\C=2.[Cu].[Na+].[Na+] (configuration not stated) |  | active: 6.31 µM |
| CC1CCC(NC(=O)CN2C(=O)C3CCCN3c3ncc(Cl)cc32)CC1 (configuration not stated) |  | inconclusive [inhibitor, partial curve] |
| COCCNc1ccnc(-c2ccccc2C)n1 |  | active: 12.6 µM |
| O=C(Nc1ccc(S(=O)(=O)N2CCCC2)cc1)c1ccc(CN2CCOCC2)cc1 |  | inconclusive [inhibitor, full curve] |
| CCOP(=O)(c1c(F)c(F)c(F)c(F)c1F)C(O)c1ccccc1 (configuration not stated) |  | inconclusive [inhibitor, single point] |

| SMILES | activity change, negative = inhibition | Potency |
| --- | --- | --- |
| CC(=O)N1CCC(C(=O)Nc2nc(-c3ccccc3)ns2)CC1 |  | inconclusive [inhibitor, partial curve] |
| O=C(CCn1nc(-c2ccccc2)ccc1=O)NCCCN1CCCCCC1 |  | inconclusive [inhibitor, partial curve] |
| Oc1ccc(N2CCN(C(c3cccs3)c3nnnn3CCc3ccccc3)CC2)cc1 (configuration not stated) |  | active: 3.16 µM |
| COC(=O)CSc1ccc2c(N)c(C(=O)OC)sc2c1 |  | inconclusive [inhibitor, partial curve] |
| CC1O[C@@H](O[C@@H]2C(O)C[C@H](O[C@@H]3C(O)C[C@@H](OC4CC[C@@]5(C)C6CC[C@]7(C)C(C8=CC(=O)OC8)CC[C@@]7(O)C6CC[C@@H]5C4)OC3C)OC2C)CC(O)[C@H]1O (some centres not stated) | inactive: -6.37% |  |
| Nc1nc(C2CC2)c(Sc2sc(N)nc2C2CC2)s1 |  | inconclusive [inhibitor, partial curve] |
| CN(Cc1cc(C(C)(C)C)cc(Br)c1O)Cc1cc(C(C)(C)C)cc(Br)c1O | inactive: -2.84% [at 11.4 µM] |  |
| O=C(Oc1ccc2c(c1)OCO2)c1ccc(F)cc1Cl |  | inconclusive [inhibitor, partial curve] |
| COc1ccc(C(=S)N(C)C)cc1OC | inactive: -26.4% |  |
| [O-]/[N+](=C\c1ccc(OC(F)F)cc1)c1ccccc1 |  | inconclusive [inhibitor, single point] |
| O=C(CN1CCN(C2CCCCC2)CC1)Nc1ccccc1N1CCCCC1 |  | inconclusive [inhibitor, single point] |
| COc1cc(C(=O)Nc2nnc(-c3sccc3C)s2)cc(OC)c1OC |  | active: 20 µM |
| O=C(Nc1ccc2c(c1)OCCO2)C1CCC1 | inactive: 5.25% |  |
| Cn1nnnc1SCC(=O)N1CCN(Cc2ccccc2)CC1 |  | inconclusive [inhibitor, full curve] |
| CCc1ccc2c(c1)CCCN2C(=O)c1ccccc1C(=O)O |  | inconclusive [inhibitor, single point] |
| Cn1c(=O)[nH]c(=O)c2c1nc(CN1CCN(c3ccccc3F)CC1)n2CC(N)=O |  | inconclusive [inhibitor, partial curve] |
| COc1ccccc1CCn1c(=O)c(-c2cccc(F)c2)nc2cncnc21 |  | inconclusive [inhibitor, partial curve] |
| CCCn1c(C)nc2c(NC(C)CCCN(CC)CC)nc(C)nc21 (configuration not stated) |  | inconclusive [inhibitor, single point] |

— PubChem BioAssay AID887 (National Center for Advancing Translational Sciences (NCATS), 2007)
